Results published in the supplement of paper PMC3334620.
In all, about 33,000 sequences were measured (“E-score (-0.5 to 0.5)”: median about -0.054, highest 2% from about 0.39 on). The list shows a part of the results.

Each sequence was assayed against Ylr278c (UniProt Q05854) (assay: PBM E-score (8-mer binding enrichment) (E-score (-0.5 to 0.5)); higher = stronger / more preferred TF binding; most listed sequences are background and not binding sites). Settings: protein concentration: 200 nM; construct: GST-DNA-binding domain.
Method in brief: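 GST-tagged yeast TFs (full-length or DNA-binding domain) were made by PURExpress in vitro transcription/translation and applied at about 100-200 nM to universal all-10-mer Agilent arrays. The arrays were made double-stranded by primer extension, on fresh or once-stripped slides. Bound protein was detected with fluorescent anti-GST, and scans were normalised with masliner. Each ungapped eight-base word, pooled with its reverse complement, received an E-score (modified Wilcoxon-Mann-Whitney statistic) from the Universal PBM Analysis Suite.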

Sequence	PBM E-score
CGCATGCC	0.222
CACGATCA	-0.157
AGCTGAAA	0.107
GTAGGCCA	-0.115
AGATGCTC	0.0796
CAGTGGCG	0.0163
ACGTGTTG	-0.138
CGTCCCAG	-0.155
CGACATAA	-0.0327
ACCGATGG	0.0792
AGCTATAC	-0.0817
GAAGTTGC	-0.0868
CTCGCAGC	-0.0523
AGTTTTAG	-0.0243
GTTACTTA	-0.00147
GCGCCCGA	0.191
AAGACGCA	-0.074
TAGCGACA	-0.19
CACCAGAG	-0.294
AAATAAGG	0.0102
AGCTCCAC	-0.0221
AGGAAGAC	-0.357
ACACGATG	-0.234
GGTATAAC	-0.157
ACGCCTCA	-0.312

Sequence	PBM E-score
ATCGGCGC	0.326
GCATTAAC	0.126
TCGGGGCA	0.239
TCATCGGA	0.408
GTGCTTAA	-0.104
CCAGAAGG	-0.156
ACATTTTC	0.0708
GACCTCCC	-0.0871
TAGGATAA	-0.0758
CGCTAACC	0.102
ATCGTCAC	-0.152
GGACATGA	0.3
ATCCTAAA	-0.265
ACAACTAA	-0.0852
GCAAGTCA	-0.0449
ACTGACAA	-0.187
ACCTAATA	-0.0973
GTGACATA	-0.0799
CTCCAGAG	-0.0382
CCTCCTAG	-0.162
AGGACTGG	-0.199
AATTCAAA	-0.0352
ACCAAGGG	-0.236
GGGTGTAA	-0.00564
AGGGTGCC	-0.211

Sequence	PBM E-score
GGTCGCGA	0.119
ATAGTCAA	-0.232
CACAAAGG	-0.106
AGCAGACA	-0.248
ACGGACAT	0.392
CCACAGCC	-0.1
CCCAGTCC	-0.0128
CCCACTGA	-0.155
CACGGAAA	0.328
ATCACAAT	-0.0164
TAGATGGA	-0.28
GAGTCCGC	0.363
GGACGCAC	0.0423
GTAGAATA	-0.106
TCCACGCA	-0.041
ACGTGACG	-0.0621
CTAGCAAC	0.0469
CAGCTCGG	0.119
ACACGAAT	-0.00148
GTATCGGA	0.431
AAGCCAGA	-0.0477
AACCTAAT	-0.115
ACTACCGA	0.161
ATTCCGCG	0.439
AATATGAA	0.0372

Sequence	PBM E-score
CTGCCTGA	-0.149
ATCGTTGA	-0.0349
AGCATTAG	-0.142
ATCGTCAA	-0.074
CACCTTAG	0.015
CTCTCTGC	-0.0297
ACCCACGT	-0.231
AAACGGTA	0.0233
ACATTTAT	-0.143
GCTCTTTA	-0.0532
ACGGACTC	0.304
GCAACCCC	0.187
ACTGAGAA	-0.186
ATGACGAG	-0.153
ATAAATGG	-0.0989
CGGGATTA	0.406
GAATAGTA	-0.0594
CGTATCCA	-0.178
AGTAAATC	0.0481
GGATAAGA	0.00581
AACACGCC	0.137
GAAATGTC	0.116
AAGATTGA	-0.166
CACTCCCG	0.193
CGGACAAG	0.383

Sequence	PBM E-score
CTAAGAAG	-0.0922
CAAACCCA	-0.0996
GAGCGACC	-0.108
AATTATCC	0.0902
ACATGGTA	-0.0615
ATCAAAGG	-0.146
ATGAGACC	-0.188
CAAGGGCA	-0.252
ACGCCATC	-0.0617
CCACCGAA	-0.0526
ATTCATGA	-0.193
ATGGCCAA	-0.09
GTGTAATA	0.0208
GCGGGCCA	0.0635
TACATTAA	-0.0987
AGATTTAG	-0.0161
CTCTTGTC	-0.064
TACTGGGA	-0.0573
TGTGTTAA	-0.173
AGCGAGGG	-0.251
AGTGCGAC	0.0241
CGAAAGAA	0.0687
ACCCGAGG	-0.122
CCATTATA	-0.00996
ATGGTTTA	0.0306

Sequence	PBM E-score
CTCGTTGC	-0.0897
GTACAACA	0.014
GTACACAA	-0.083
CTATGACA	-0.237
GCAGGAAC	-0.047
ATACATGC	-0.165
CGCGTTCA	0.115
CATGCCGG	0.368
CGTCTTGA	0.0236
AACAGAAA	-0.134
ACGATGGC	-0.144
CGAGCCTC	-0.0862
CCGCAGGA	0.141
ACGCCTCT	-0.319
CGCCGATA	0.37
ACCGAAGC	0.0369
ATCGCGCG	0.243
ACGAAGGC	-0.151
AGGCGACC	-0.0726
GATCATCA	-0.231
ACAGAAGT	-0.269
ATCGATCA	-0.00795
TCACCTGA	-0.193
GCCAGCCC	-0.141
CCATGGAC	-0.0535

Sequence	PBM E-score
CCGTAAAC	0.163
ATGTGGGA	-0.101
AATTTGCG	0.127
GCTGTACA	-0.114
GAACATTC	0.0882
CTTGACAA	-0.0658
GAGGCGAA	-0.0583
CGAGGGTC	0.124
GGCCTGAC	0.117
ACATTAGG	-0.22
CACTGGAA	-0.272
GACAAGCA	-0.0953
ATTCTTTC	0.0944
GAGCGAGA	0.263
AAGCTCGT	-0.288
ACTGGAAA	-0.0873
AAGCACCA	-0.265
AATGCCCG	0.213
ACCAATAG	-0.0921
CCTCTGCC	-0.303
AGTGCTTG	-0.191
CGAATGTC	0.101
ATTTGCCG	0.308
CTCTCCTA	-0.103
AACATACG	0.0888

Sequence	PBM E-score
CGAGTTTC	0.114
ACGGCGTG	0.122
AGTGGTTG	-0.0668
GAAGGACC	-0.0377
GAATAGCC	-0.0185
AACAGCGA	-0.162
ATGAACAA	-0.152
AATAGGCA	-0.0236
GAGGCTAC	-0.142
GGACGCGA	-0.0183
AGCTGTAT	-0.189
ACCTTACC	0.02
TAGCAACA	-0.087
CCGCTAGC	0.0837
ACTGTAGG	0.0177
ACGAAGGA	-0.0846
AAAGGTCG	-0.0967
TCATTAAA	0.109
CTTACGTC	-0.223
TCTTAAAA	-0.228
CTTAGTAA	0.0152
GTTATGGA	-0.0754
TCCATGCA	0.124
ACTCTACA	-0.252
AGCACGCT	-0.187

Sequence	PBM E-score
CACTCCGA	0.454
AACCAGGC	-0.0994
TCGTGAGA	0.0544
CTCGCACC	-0.0433
AAAGGCGC	-0.072
TCAAGTCA	-0.11
GTCCGGCA	0.41
ACGTTTTC	-0.112
AAGAATTC	0.00711
GTCTGAAC	-0.226
AAGGCGAA	0.00122
ATTAAAAA	0.0584
AGGCAACC	-0.0802
ATATGAAC	-0.153
CCAGTGAC	-0.227
ACCGGCAT	0.353
GTCACGGA	0.401
CAGATTGG	-0.0595
AAGAAGTA	-0.0639
